Sequences with one replicate were seen in a single cluster, so their values are uncertain.
Test system: ATP
Assay: switch fluorescence ratio, 500 uM ATP over buffer (Cy3 cluster intensity, sum of 5 cycles each) (fold (ratio)); higher = stronger signal-on switching upon ATP binding; sequences stand for … in TCGTCGGCAGCGTCAGATGTGTATAAGAGACAGTTTTTTTTTTTTTTTTTTTTTTTTT…TC
Conditions: aptamer strand: ATP DNA aptamer (quencher-CACCTGGGGGAGTATTGCGGAGGAAGG + anchor), 100 nM annealed; ATP concentration: 500 uM; one replicate
How it was run: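 Imaging in selection buffer was followed by imaging after 15 min with 500 uM ATP at 22 °C, for Cy3-labelled switching-strand clusters annealed to 100 nM quencher-labelled ATP aptamer on a modified Illumina MiSeq flow-cell. Five of these buffer/ATP cycles ran, separated by NaOH stripping and re-annealing. The fluorescence ratio per cluster is summed target-cycle over summed buffer-cycle Cy3 intensity, averaged per switch-domain sequence; clusters outside 100-1000 RFU were removed.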
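Also: ATP exposure 15 min at 22 °C before imaging.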

Sequence	switch fluorescence ratio
TACGGGCGTT	1.02
GCGGGACTTA	1.06
TCTAGGACAG	1.03
AAAAACTTTT	1.08
AATCTTACAT	1.01
TGGAAAACGT	1.01
TAACCTTTTT	0.985
GGGAGTGTTA	0.982
CTAGCCTAGC	1.02
TAGGTGCTC	1.04
AGCGAACCGC	0.99
ATTGTTGCCG	0.969
TTAAGGCAAC	0.993
GATGGTACAC	1.02
TATTGGGCCA	1.02
AGTAGAAACG	0.979
GATCTGTGTA	0.981
AAAGAGGATA	1.01
GCTATTCAC	1.12
TCAGATACTA	1.05
CTAGGTCGAT	1
GGGGAAGGAC	1.03
CTGTGGAGTG	0.999
ACACTGAGGT	1
AAAAGGACCT	1.66

Sequence	switch fluorescence ratio
TGGGCTACTA	0.99
TCGTGCCTGG	0.989
ACAGGTCCGT	1.06
TCGCCGGGCA	1.03
CTGAGACTGC	1.08
GAAAAATCAA	1.01
GACTTTCACT	1.08
GAGGCGCTGT	0.964
GCATTAGCT	1.01
CCAGTTCACC	1.05
TATAAGCGG	1.03
AACTGGTGAC	1.07
ACTGCTAGAC	2.94
TTCATAATGG	1.04
TAAATAGCAA	1.46
TCGCAGGGTC	1.33
CGTGAAGGG	0.958
TCATAAATCT	1.01
TACGTGGGTC	1.02
CGCAGAAGAT	1
ACCGGTAAT	0.966
CAGACGGGAG	1.07
GCCATGTGTA	1.03
TGTTACTAGG	1.02
AGTCTTGA	1.02

Sequence	switch fluorescence ratio
ATTAATGAAT	1
GCCTGCACGG	1.02
GATTTAGCAT	1.04
AGACGAGCGA	1.13
CCCGAAACCG	1.2
TAGCTCACAC	1.06
CAAGCGGCTG	1.04
CATTTGAATC	1.02
CGCCAACG	1.02
TAGTTTAGGA	1
GAATAGCTGG	0.983
TAGGGGTTAC	0.986
GGCGAAGCTC	0.987
TATGATCTGG	0.983
AATAGTAATA	1.01
GAAAGATGTA	0.99
TGGTTACCGT	0.97
ATTAAACCGC	1.19
ATGGACAAGC	1.05
AACAGTCCCG	0.993
ACATGTGAAA	1.01
AGAGCGTAAA	1.01
ATGGCACGAG	0.981
TTTGGGGG	0.95
CAGAGTAACG	1

Sequence	switch fluorescence ratio
CACGGTAGCG	1.04
TAGACCGCTT	1.06
TCCGAGATAA	1.03
CCCCGCGTTG	1.13
GAGGCATCTG	0.989
CGCGTTTAA	1.04
ACTTCAGGCC	1.01
TATTTCCCGG	0.967
CGATAACTAG	1.01
CTGTGCCGTC	1.11
GTGCGGGAGC	1.02
TAAGAATCGT	1.02
GGGCACCTAT	0.989
AAAAGAGTGG	0.995
CCGTTCCGGC	1.07
TATTGCGTAG	0.942
CTTGCGAGAA	1.26
GCCTAAGAT	1
GTGTAAAACA	1.1
GAGGGTAGAC	1.04
ATAGAACTGG	0.928
TCGTATGGAT	0.973
CATCCTAGCC	1.19
TACAAATTTA	1.03
TCCATGATCT	1.04

Source: the supplement of paper PMC10126150
